Source: publication doi:10.1101/2020.10.13.334797 (bioRxiv, 2020)

Molecular target: the molecule itself
Experiment: cryo-EM structure

B1: human transient receptor potential vanilloid 4 (hTRPV4), truncated construct, […] N651D (domain or fragment)
chain: not shown
stoichiometry N: 4
